Measurements published in the antibiotic and cytotoxicity screens of Wong et al. (2023).
The other results are listed elsewhere or left out.

test system: S. aureus RN4220; assay: growth inhibition call (relative growth <= 0.2); settings: 50 µM

Growth inhibition call, inactive:
Cc1noc(C)c1NC(=O)Nc1ccc2c(c1)CC(=O)N([C@H](C)CO)C[C@H](C)[C@H](CN(C)S(=O)(=O)c1ccccc1)O2
C[C@H](CO)N1C[C@H](C)[C@H](CN(C)C(=O)Nc2cccc3ccccc23)Oc2ccc(NC(=O)C3CCCCC3)cc2C1=O
C[C@H](CO)N1C[C@H](C)[C@H](CN(C)C(=O)Nc2cccc3ccccc23)Oc2ccc(NC(=O)CCC(F)(F)F)cc2C1=O
C[C@@H]1CN([C@H](C)CO)C(=O)c2cc(NC(=O)CCC(F)(F)F)ccc2O[C@H]1CN(C)S(C)(=O)=O
C[C@@H]1CN([C@H](C)CO)C(=O)c2cc(NC(=O)CCCN(C)C)ccc2O[C@H]1CN(C)S(=O)(=O)c1cn(C)cn1
C[C@H](CO)N1C[C@H](C)[C@H](CN(C)C(=O)CCC(F)(F)F)OCCCC[C@H](C)Oc2ccc(NS(=O)(=O)c3ccc(Cl)cc3)cc2C1=O
Cc1c(C(=O)Nc2ccc3ccccc3c2)oc2ccccc12
CC1(C)CC(NC(=O)c2ccc(Cl)c(S(=O)(=O)N(Cc3ccccc3)c3ccccc3)c2)CC(C)(C)N1
Cc1ccc(S(=O)(=O)N(C)C[C@H]2Oc3c(NC(=O)C4CCOCC4)cccc3C(=O)N([C@H](C)CO)C[C@H]2C)cc1
CC(=O)c1c(O)cc(O)cc1CC(=O)O
C[C@H]1CN([C@@H](C)CO)S(=O)(=O)c2ccc(C#Cc3ccccc3F)cc2O[C@H]1CN(C)CC1CCOCC1
Cc1ccc(S(=O)(=O)N(C)C[C@@H]2OCCCC[C@H](C)Oc3ccc(NC(=O)Nc4ccc(C(F)(F)F)cc4)cc3C(=O)N([C@@H](C)CO)C[C@@H]2C)cc1
CCCNC(=O)Nc1ccc2c(c1)C(=O)N(C)C[C@@H](OC)[C@H](C)CN(C(=O)C1CCOCC1)[C@H](C)CO2
Cc1ccc(S[C@]2(C(=O)NCCN3CCOCC3)CC(=O)N(C(C)C)[C@@H]2c2ccc(CO)cc2)cc1
C[C@H](CO)N1C[C@H](C)[C@H](CN(C)C(=O)Cc2cccnc2)Oc2ncc(C#Cc3ccccc3F)cc2C1=O
C[C@H]1CN([C@@H](C)CO)C(=O)Cc2cc(NS(=O)(=O)c3cn(C)cn3)ccc2O[C@H]1CN(C)CC1CC1
